# Source: paper PMC4336329 (PLoS ONE, 2015)
# The whole screen tested about 310,000 compounds, of which about 2,200 (0.71%) showed an effect of 50% or more. The effect is printed as a negative number. The list shows a part of the results.
# Target: human ether-à-go-go-related gene (hERG) potassium channel (human, UniProt Q12809)
# Assay: primary screen, population patch clamp on CHO cells stably expressing hERG
# Chain of human ether-à-go-go-related gene (hERG) potassium channel (Q12809 whole entry, looked up): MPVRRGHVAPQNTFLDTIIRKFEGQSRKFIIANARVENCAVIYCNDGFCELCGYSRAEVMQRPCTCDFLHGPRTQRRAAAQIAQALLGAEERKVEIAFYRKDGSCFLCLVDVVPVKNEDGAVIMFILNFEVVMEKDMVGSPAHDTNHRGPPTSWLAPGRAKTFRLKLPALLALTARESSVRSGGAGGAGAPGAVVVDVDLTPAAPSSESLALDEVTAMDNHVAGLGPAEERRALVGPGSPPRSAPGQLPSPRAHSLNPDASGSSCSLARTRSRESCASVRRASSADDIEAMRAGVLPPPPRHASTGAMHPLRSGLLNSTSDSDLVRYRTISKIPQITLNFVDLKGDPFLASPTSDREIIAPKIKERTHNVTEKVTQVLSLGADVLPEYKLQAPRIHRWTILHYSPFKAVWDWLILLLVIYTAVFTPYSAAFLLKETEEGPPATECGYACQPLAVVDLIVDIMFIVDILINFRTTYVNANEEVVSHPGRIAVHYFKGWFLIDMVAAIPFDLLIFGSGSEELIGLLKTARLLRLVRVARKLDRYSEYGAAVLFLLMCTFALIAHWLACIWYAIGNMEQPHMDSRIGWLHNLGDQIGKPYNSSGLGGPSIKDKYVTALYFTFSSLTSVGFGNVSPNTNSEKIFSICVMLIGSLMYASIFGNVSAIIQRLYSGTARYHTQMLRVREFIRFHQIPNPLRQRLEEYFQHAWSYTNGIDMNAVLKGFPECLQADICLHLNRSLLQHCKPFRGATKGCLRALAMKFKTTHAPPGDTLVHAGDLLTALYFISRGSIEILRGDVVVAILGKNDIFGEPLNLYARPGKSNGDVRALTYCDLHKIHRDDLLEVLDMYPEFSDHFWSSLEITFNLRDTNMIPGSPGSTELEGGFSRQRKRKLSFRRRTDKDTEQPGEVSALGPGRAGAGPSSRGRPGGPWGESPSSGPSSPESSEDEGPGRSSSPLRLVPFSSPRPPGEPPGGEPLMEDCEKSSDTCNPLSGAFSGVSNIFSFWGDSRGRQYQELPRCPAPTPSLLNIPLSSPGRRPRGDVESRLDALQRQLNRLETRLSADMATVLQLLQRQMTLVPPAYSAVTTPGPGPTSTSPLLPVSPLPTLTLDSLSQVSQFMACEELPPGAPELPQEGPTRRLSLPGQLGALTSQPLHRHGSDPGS
row,Structure (SMILES),"hERG current change (%, negative = inhibition) at 1uM [%]"
1,O=C(CN1C(=O)S/C(=C\C=C\c2ccccc2)C1=O)Nc1cccc(O)c1,-2.27
2,CCOC(=O)c1c(NC(=O)CSc2nnc(N)s2)sc(C)c1-c1ccc(C)cc1,15
3,Cc1nn(-c2ccccc2)c(-c2ccccc2)c1C(=O)O,7.3
4,COc1ccc(C(C(=O)NC2CCCC2)N(CCN(C)C)C(=O)c2snc(C(N)=O)c2N)cc1 (stereo not shown),-9.1
5,Cc1cc(Cl)ccc1OCC(=O)NNC(=O)c1cccs1,15
6,CSCCC(NS(=O)(=O)c1ccc(Cl)cc1)C(=O)OCC(=O)N1CCOCC1 (stereo not shown),-3.72
7,CC1CCC(NC(=S)NCCN(C)C)CC1 (stereo not shown),13.4
8,O=C1/C(=C/c2cccc(Br)c2)SC(=S)N1CCC(=O)N(CCO)c1ccccc1,13.6
9,Cc1c(NC(=S)NC(=O)C(C)(C)C)cccc1[N+](=O)[O-],5.79
10,CCOc1ccc(CCNC(=O)c2cnc(C)cn2)cc1OCC,8.1
11,O=C(c1cc(-c2ccccc2O)on1)N1CCCCCC1,-35.2
12,CCOc1cc(/C=C2\SC(=O)N(CC(=O)Nc3ccccc3F)C2=O)cc([N+](=O)[O-])c1O,10.2
13,COc1ccccc1N1CCN(CC(=O)Nc2nccs2)CC1,1.33
14,O=C(COc1ccc2ccc(=O)oc2c1)Nc1ccc2c(c1)OCCO2,-0.116
15,CC(=O)Nc1ccc(S(=O)(=O)NCCc2ccccc2)cc1,7.12
16,CCCCSCCCNC(=O)c1ccc2c(c1)N(CC)C(=O)c1ccccc1S2=O (stereo not shown),5.8
17,CCOC(=O)c1cnc2c(C(=O)OC)cccc2c1NCc1ccco1,-71.4
18,O=C(NC1Cc2ccccc2C1)c1cc(COc2cccc(C(F)(F)F)c2)on1,15.8
19,Cc1ccc(N/N=C2\CS(=O)(=O)N(C)c3ccsc32)cc1,12.4
20,COc1ccc(-c2csc(Nc3cc(C)ccn3)n2)cc1OC,16.2
21,O/C(=C\c1nc2ccccc2[nH]1)c1cccs1,0.259
22,COC(=O)c1ccsc1NC(=O)CCS(=O)(=O)c1ccc(Cl)cc1,8.15

row,Structure (SMILES),"hERG current change (%, negative = inhibition) at 1uM [%]"
1,O=C(N1CCOCC1)N(Cc1cccs1)C1CCCC1,6.53
2,Cc1ccc(Sc2cc(C(=O)c3ccccc3C(=O)O)ccc2[N+](=O)[O-])cc1,13.8
3,COc1ccc(NS(=O)(=O)c2cccs2)c(OC)c1,0.658
4,COC(=O)C1=C[C@@H](C(=O)OC)C2C3=C(C(=O)C24CCCCC4)[C@H](C)n2c(=O)n(C)c(=O)n2[C@@H]3C1 (stereo partly shown),14.6
5,COc1ccccc1CNC(=O)COC(=O)c1ccc(C)c(S(=O)(=O)N2CCOCC2)c1,7.91
6,CCOC(=O)C1(C(F)(F)F)N=C(c2ccccc2F)OC(N(C)C)=N1 (stereo not shown),7.37
7,Cc1ccc(S(=O)(=O)NC(=NCC(=O)O)c2ccccc2)cc1,6.82
8,O=C(Cc1c(Cl)cccc1Cl)Nc1ccncc1,0.578
9,CCC1(C)Cc2ccccc2-c2nc3n(c(=O)c21)CC(C(=O)O)S3 (stereo not shown),12.1
10,Cc1ccc(N(O)C(=O)OCCNC(=O)Nc2ccccc2)cc1,10.3
11,COc1ccnc(Oc2ccccc2)c1C#N,6.34
12,CCn1c(-c2nn(-c3ccc(C)cc3)ccc2=O)n[nH]c1=S,2.46
13,O=C1c2ccccc2NC(c2cc(Cl)cc(Cl)c2O)N1Cc1cccnc1 (stereo not shown),6.13
14,Cc1ccc(C(=O)C(C)OC(=O)C2CCN(c3ccc(C(F)(F)F)cn3)CC2)cc1C (stereo not shown),10.6
15,Cc1cccc(OCCSc2nc(N)cc(N)n2)c1,11
16,CC(C)(C)C(=O)Oc1cc(N)n(S(=O)(=O)c2ccccc2)n1,7.51
17,CCOC(=O)CSc1snnc1-c1ccccc1,11.4
18,CN1C(C(=O)NCCc2cccs2)CC2Cn3c(nc4cc5ccccc5cc43)C21 (stereo not shown),-21.4
19,COc1ccc(C(=O)CCNc2ccc(F)cc2)cc1,9.93
20,CC(=O)c1ccc(OC(=O)CCc2nc3ccccc3s2)cc1,11.7
21,CCOc1cc2c(cc1OCC)-n1cccc1C(c1ccc(OC)c(O)c1)NC2.Cl (stereo not shown),0.376
22,COc1ccccc1CCc1nnc(CCC(=O)NCCCOc2cccnc2)o1,9.05

row,Structure (SMILES),"hERG current change (%, negative = inhibition) at 1uM [%]"
1,Cc1ccc(CSc2nc3ccncc3n2CC(=O)Nc2cc(C)cc(C)c2)cc1,11.8
2,CC(C)Oc1ccc(C(=O)Nc2cccc3cccnc23)cc1,6.11
3,O=C(NNC(=S)Nc1ccc(Br)cc1)c1ccc(N2CCOCC2)c([N+](=O)[O-])c1,10.1
4,O=C(N/N=C/c1cccc(OCc2ccccc2)c1)c1ccc(Br)cc1,-1.87
5,CCOC(=O)C1CCN(c2c([N+](=O)[O-])c(C(Cl)Cl)nn2-c2ccccc2)CC1,3.58
6,Cc1ccc(C(=O)C2CCN(CC(=O)N3CCN(c4ccc(F)cc4)CC3)CC2)cc1,-66.5
7,CN(C)c1ccc(N/C=C/C(=O)C(C)(C)C)cc1,16
8,COc1ccc(NC(=S)NCc2ccc(S(N)(=O)=O)cc2)c(OC)c1,9.35
9,CCOc1ccc(-c2c(C(=O)N/N=C/c3ccc(C)o3)nnn2-c2nonc2N)cc1,13.8
10,CN(C)C1=C(Cl)C(=O)N(c2ccc(Cl)c(Cl)c2)C1=O,11.2
11,O=[n+]1c2c(n([O-])c3cc(Br)ccc31)CCC2,3.9
12,CCN1CCN(C(=S)c2ccc(OCC(=O)Nc3ccc(OC)cc3)cc2)CC1,3.47
13,CCN(CC)S(=O)(=O)c1ccc2oc(C(=O)NCC3COc4ccccc4O3)c(C)c2c1 (stereo not shown),6.82
14,CCOc1ccc(N(CC(=O)NC2CCCC2)S(=O)(=O)c2c(C)[nH]c(=O)[nH]c2=O)cc1,10.8
15,Cc1ccc(C2N(c3ccc(Cl)c(Cl)c3)C(=O)C3CCCN32)o1 (stereo not shown),10.9
16,Cc1cc(C(=O)N/N=C2\CC(=O)CC(C)(C)C2)n[nH]1,2.33
17,CCOC(=O)CN1C(=O)C(Sc2n[nH]c(-c3cccc(C)c3)n2)CCc2ccccc21 (stereo not shown),9.6
18,COc1ccc(CCC(=O)Nc2ccc(-c3noc(-c4ccc(OC)c(OC)c4)n3)cc2)cc1,22.2
19,CCCCN(CC)CCCNC(=O)c1cc2cc3ccc(OC)cc3nc2o1,-32.7
20,COC(=O)[C@H]1C[C@@H]1[C@H](NC(=O)c1cccnc1)c1ccccc1,11.5
21,CC1(C)NC(=O)N(c2ccccc2Cl)C1(C)NO (stereo not shown),-5.78
22,CS(=O)(=O)N(CC(=O)NCc1ccncc1)c1ccc(Cl)c(Cl)c1,-6.93

row,Structure (SMILES),"hERG current change (%, negative = inhibition) at 1uM [%]"
1,COc1ccc(CN2CCN(CC(O)Cn3c4ccccc4c4ccccc43)CC2)cc1 (stereo not shown),-8.22
2,COc1ccc2c(c1)CC[C@@H]1[C@@H]2CC[C@]2(C)C(=O)CC[C@@H]12,14.4
3,Cc1ccc(-c2nnc(-c3cccc(NC(=O)c4cccs4)c3)o2)cc1,6.58
4,CCOC(=O)N1CCN(C(=O)CNC(=O)c2ccc(Cl)cc2Cl)CC1,-9.31
5,CC(C)CCNC(=O)CN(Cc1ccccc1)C(=O)CCC(=O)Nc1ccccn1,2.22
6,COc1ccccc1CNC(=O)COC(=O)c1n[nH]c2ccccc12,-2.71
7,COc1ccc(NC(=O)c2ccc(S(=O)(=O)C(F)F)cc2)c(OC)c1,0.227
8,Cc1ccc(C2=CC(c3ccccc3)n3ncnc3N2)cc1 (stereo not shown),9.05
9,CC(C)CCN1C(=O)c2ccc(C(=O)NCC3CCCO3)cc2C1=O (stereo not shown),-1.67
10,CCCc1nc2c(nnn2Cc2ccccc2)c(=O)[nH]1,7.23
11,CC(C)c1ccc(-n2nnnc2SCC(=O)NC2CC2)cc1,14.9
12,Cc1ccc(C(=O)N/C(=C\c2ccccc2)C(=O)NCC2CCCO2)cc1 (stereo not shown),9.57
13,Cc1cc(C)c(C(=O)C2OC(=O)C(C)(C)C(=O)C2(C)C)c(C)c1 (stereo not shown),9.56
14,Cc1ccc(-c2csc3ncnc(SCC(=O)Nc4nnc(C)s4)c23)cc1,-0.987
15,CCC(C)NC(=O)CCS(=O)(=O)c1ccc(Br)s1 (stereo not shown),6.64
16,Cc1ccc(C(=O)N(c2ccccc2)C2CC(C)N(C(=O)c3ccco3)c3ccccc32)cc1 (stereo not shown),1.93
17,CC(=O)c1cccc(NC(=O)CSCc2ccccc2)c1,11
18,O=S(=O)(Cc1nc2ccccc2s1)c1ccccc1,4.95
19,CC(C)CCNC(=O)COc1ccc(C(=O)c2ccccc2)cc1,1.68
20,COS(=O)(=O)[O-].Cn1c(Cc2ccccc2)[n+](C)c2ccccc21,9.2
21,O=C(CC1C(=O)NC2CCCCC2N1C(=O)c1ccc([N+](=O)[O-])cc1)Nc1ccccc1 (stereo not shown),-0.203
22,CC(C)NC(=O)c1cc2cc([N+](=O)[O-])ccc2s1,14.1
